According to the supplement of paper PMC10126150:
Sequences with one replicate were seen in a single cluster, so their values are uncertain.

System: ATP
Assay: switch fluorescence ratio, 500 uM ATP over buffer (Cy3 cluster intensity, sum of 5 cycles each) (fold (ratio)); higher = stronger signal-on switching upon ATP binding; sequences stand for … in TCGTCGGCAGCGTCAGATGTGTATAAGAGACAGTTTTTTTTTTTTTTTTTTTTTTTTT…TC
Details: aptamer strand: ATP DNA aptamer (quencher-CACCTGGGGGAGTATTGCGGAGGAAGG + anchor), 100 nM annealed; ATP concentration: 500 uM; one replicate
Procedure, shortened: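 Switching-strand clusters labelled with Cy3 on a modified Illumina MiSeq flow-cell were annealed to 100 nM quencher-labelled ATP aptamer, imaged in selection buffer, and re-imaged after 15 min with 500 uM ATP at 22 °C. This was done over five cycles with NaOH stripping and re-annealing in between. The fluorescence ratio is summed target-cycle over summed buffer-cycle Cy3 intensity per cluster, averaged per switch-domain sequence, excluding clusters outside 100-1000 RFU.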
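Also: ATP exposure 15 min at 22 °C before imaging.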

Row | Sequence | switch fluorescence ratio
1 | CTCAGCAGAT | 2.83
2 | TTCAGTCCCC | 1.07
3 | GCCAGAGGGC | 1.04
4 | AGAATTGTTG | 0.956
5 | TGCGGGAACC | 1.02
6 | CGCTGTCTGG | 1
7 | TTTGGCGGCT | 1.01
8 | ACTTCCTGAT | 1.08
9 | CATTGGTTAA | 1.01
10 | TGGGCTGAGC | 0.98
11 | TCCATCATGT | 1.01
12 | ACGGATATCC | 0.977
13 | CCTTTTCACG | 1.04
14 | GCCCACCAGA | 1.08
15 | GACAGAGTGG | 0.944
16 | TTGTATGTGC | 0.995
17 | TCGAGACTAC | 1.19
18 | GAAGAGTTGG | 0.961
19 | TCCCCGAAG | 1.24
20 | GTGTGCGCTT | 1
21 | TTATCTGGA | 1.05
22 | AACTGGCTTG | 1
23 | TATGGAAGC | 0.997

Row | Sequence | switch fluorescence ratio
24 | TGGGTTTGCA | 1.01
25 | GTAGTTGGGG | 0.988
26 | CGCATGCGGT | 1.04
27 | CCGAGAAATT | 2.39
28 | CAAATATGTA | 1.01
29 | TCAGAAAAAT | 1.05
30 | TTTTACACCC | 1.17
31 | ATTCCTAGTC | 1.06
32 | TATAGGATCT | 0.969
33 | CAGAAGGAGG | 1.01
34 | TGACACGGCC | 1.11
35 | TCGTGTTACG | 0.974
36 | TGAAGCGATG | 1.47
37 | ACTCCTTGGA | 1.03
38 | CACACAATGT | 1.03
39 | GCCAGTAACA | 0.995
40 | ACGTATGTGG | 1.08
41 | TTCCTAGCGC | 0.991
42 | CAGGGCGTCG | 0.997
43 | ATCGGGTCAC | 0.977
44 | ATCGAGACGC | 1.04
45 | ATGGGAGGAC | 1.01
46 | ATATCACCCT | 1.07

Row | Sequence | switch fluorescence ratio
47 | GTCTATTAAG | 0.971
48 | ATTTGATCTC | 0.998
49 | AGGCGCTATT | 0.978
50 | AATAGCTGTA | 0.955
51 | CTAGCAACAA | 1.32
52 | AGAAGATAGC | 1.06
53 | TGAGAATCTG | 1.02
54 | GCTAGGAGGT | 0.998
55 | CTGCACAGGG | 1.12
56 | TTCTTAAACC | 0.997
57 | TTTGTAGCA | 1.15
58 | GCATCACCGG | 1.01
59 | TTCGAGGCCA | 1.13
60 | AACTGTTTTG | 1
61 | TCGACTTTTG | 0.96
62 | GACGATAACT | 1.16
63 | TCAGTACAGT | 1.03
64 | ACTAGGATTG | 1.02
65 | CCGCGTAGC | 1.31
66 | CATGGAAGTC | 0.994
67 | TTCGATTTCC | 1.03
68 | AGTACCAAAT | 1.03
69 | CCATTTATTC | 0.978

Row | Sequence | switch fluorescence ratio
70 | GATGGGTA | 1.05
71 | ATGCGCTGAG | 1.01
72 | AAATTTTCCA | 1.05
73 | TCATCAGACA | 0.999
74 | TGATTTAAAT | 1.04
75 | CCGTGTGGCA | 1.02
76 | TGGTCACGCT | 0.997
77 | CAGAGTTATG | 0.97
78 | ATCTTATGTG | 1.03
79 | AGTGAGAGCT | 1.03
80 | TAGGGTGCAG | 0.972
81 | AAGGTTGAAG | 1
82 | GGCCAATGCA | 0.979
83 | ACGCTTAGTT | 1.04
84 | CAAATTATGT | 0.987
85 | CCGGGCCGGG | 0.958
86 | GGAACGTCCG | 0.993
87 | GGTCGTTGCA | 1.06
88 | AGTAGGCTTA | 0.995
89 | AAACATGTAG | 0.998
90 | GAGCGTGCCT | 1.02
91 | ATGGCATTGC | 0.969
92 | CTGCTTCGGT | 1.05

Row | Sequence | switch fluorescence ratio
93 | AGGTTTGTTC | 0.952
94 | CAGGTGAGGG | 1.29
95 | TCTCCAACAG | 1.38
96 | CATTCTATTT | 0.957
97 | TAGCACGGAG | 0.999
98 | AAAGTGCCA | 0.985
99 | TGCGAAGTCG | 1.03
100 | TGAACAATTT | 1.04
101 | ATTCCTTCGA | 1.47
102 | ACAGCAAGGT | 1.19
103 | ACAAGTTCA | 0.994
104 | TTTTCTCGA | 1.01
105 | GACAGGTCTC | 0.983
106 | TGCAGCAGG | 1.19
107 | CCCGCGTCTG | 1.17
108 | CGAGGGAGCT | 1.05
109 | GTAAAAAAAA | 0.969
110 | CTCACGGCAC | 2.02
111 | AGTTCCGCGT | 1.22
112 | CAAGTGTTGA | 1.06
113 | ATGGCGGGA | 1
114 | GAGTACGGAG | 0.999
115 | GGGGATTAT | 0.986

Row | Sequence | switch fluorescence ratio
116 | ATCCTTTGCT | 1.07
117 | CGGTGCCACT | 1.01
118 | CTTTGCTTTC | 1.19
119 | AAATTTAGG | 1.01
120 | TAGTGTGCGG | 0.989
121 | AGTAAATTGG | 0.929
122 | ACGGGGCGAC | 0.99
123 | AGGTAAGTCA | 0.968
124 | GGCGGCTATT | 1.01
125 | TCGCGTTACA | 1.06
126 | AGGATACTAG | 0.981
127 | GGGCCCGTTT | 0.933
128 | CAGAGCCATT | 0.98
129 | TATAGTTCTG | 0.982
130 | CATGGAACTC | 0.984
131 | GGTTCGCCCG | 1.03
132 | AAGCCGAGCA | 0.991
133 | GGGTGGCCCA | 0.972
134 | TAGCATGTTT | 0.988
135 | GACCTAGTCC | 1.07
136 | CTAACCGATC | 1.56
137 | TAAAAGAAGT | 1.03
138 | ACGAATCTAG | 1.02

Row | Sequence | switch fluorescence ratio
139 | TAGTTTGAGA | 1.01
140 | GTCGTTTTTT | 1.01
141 | ATCAACGAGC | 1
142 | CGAGGGAAGT | 0.99
143 | TGTCGGGACT | 0.993
144 | GATCGGGAA | 0.962
145 | AGGTGGTGTA | 1.02
146 | CGTGTGGGGC | 1.05
147 | TATCCCAAC | 1.02
148 | ATCTATGTCC | 0.997
149 | GCGGACGACC | 1.75
150 | TTTTCCGTCA | 1.11
151 | CGAGGGGATC | 1.05
152 | CGGGTTACAT | 0.961
153 | ACGCAAATGT | 1.3
154 | TGTCCTTGG | 1
155 | GGGTAGTTGT | 0.994
156 | TCGACTCCCC | 2.53
157 | CGAGGTCGGT | 0.995
